# Out of some 310,000 compounds screened, about 2,200 (0.71%) showed an effect of 50% or more. The effect is printed as a negative number. The list shows a part of the results. Where a SMILES comes first, the peptide text is derived from it. [ ]: non-standard residue; d: D form. ξ: configuration not given here. ξV = CC(C)C(N)C(=O)O
# Molecular target: human ether-à-go-go-related gene (hERG) potassium channel (human, UniProt Q12809)
# Experiment: primary screen, population patch clamp on CHO cells stably expressing hERG
# human ether-à-go-go-related gene (hERG) potassium channel, sequence (Q12809 whole entry, looked up): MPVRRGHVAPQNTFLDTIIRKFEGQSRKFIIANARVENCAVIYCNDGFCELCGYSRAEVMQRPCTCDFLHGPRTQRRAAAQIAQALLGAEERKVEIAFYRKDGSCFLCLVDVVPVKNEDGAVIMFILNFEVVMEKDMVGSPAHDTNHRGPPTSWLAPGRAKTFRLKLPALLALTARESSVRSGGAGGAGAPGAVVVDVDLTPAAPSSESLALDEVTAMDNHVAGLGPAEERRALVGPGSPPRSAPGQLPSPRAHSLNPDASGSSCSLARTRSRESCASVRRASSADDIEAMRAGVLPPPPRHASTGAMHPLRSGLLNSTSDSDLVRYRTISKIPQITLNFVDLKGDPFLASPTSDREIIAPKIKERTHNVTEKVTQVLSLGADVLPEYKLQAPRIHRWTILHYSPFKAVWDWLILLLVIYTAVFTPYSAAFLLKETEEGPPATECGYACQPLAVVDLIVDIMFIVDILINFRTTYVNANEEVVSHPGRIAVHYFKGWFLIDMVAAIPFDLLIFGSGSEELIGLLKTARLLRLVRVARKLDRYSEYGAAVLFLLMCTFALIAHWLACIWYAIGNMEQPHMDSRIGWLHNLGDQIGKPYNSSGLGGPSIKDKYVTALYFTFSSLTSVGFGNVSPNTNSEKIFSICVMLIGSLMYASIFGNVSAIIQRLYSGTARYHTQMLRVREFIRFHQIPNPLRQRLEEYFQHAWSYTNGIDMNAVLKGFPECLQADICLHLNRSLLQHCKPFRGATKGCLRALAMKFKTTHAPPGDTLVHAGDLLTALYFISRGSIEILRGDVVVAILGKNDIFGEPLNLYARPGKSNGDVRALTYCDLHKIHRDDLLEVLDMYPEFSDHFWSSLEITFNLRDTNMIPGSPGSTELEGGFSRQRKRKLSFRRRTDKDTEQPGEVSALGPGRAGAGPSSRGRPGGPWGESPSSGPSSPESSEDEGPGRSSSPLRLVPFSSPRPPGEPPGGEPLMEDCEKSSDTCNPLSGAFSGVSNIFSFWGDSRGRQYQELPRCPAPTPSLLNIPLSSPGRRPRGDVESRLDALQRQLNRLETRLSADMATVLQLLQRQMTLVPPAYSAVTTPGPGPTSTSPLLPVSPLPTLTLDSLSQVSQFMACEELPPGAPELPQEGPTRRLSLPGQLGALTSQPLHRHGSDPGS
row,SMILES,"hERG current change (%, negative = inhibition) at 1uM [%]"
1,COc1ccc(-c2ccc(-c3noc(-c4ccccc4C)n3)c(OC)n2)cc1,13.7
2,Cc1ccc(C)c(C(=O)NC2CC(C)(C)NC(C)(C)C2)c1,10.3
3,CC(C)[C@H](NS(=O)(=O)c1cccc(Cl)c1)C(=O)OCC(=O)N1CCN(c2ccccc2)CC1,4.53
4,CCc1ccc(C(=O)Nc2ccc3c(c2)n(C)c(=O)n3C)cc1,-0.871
5,CCOC(=O)Cc1csc(SCC(=O)N2CCN(c3ccc(OC)cc3)CC2)n1,-2.4
6,COc1ccc(-n2c(C)n[nH]c2=O)cc1,0.526
7,COc1ccccc1-n1c(C)nc(=O)c(-c2ccccc2)c1C,18.8
8,COc1ccccc1C(=O)NCC(=O)Nc1ccccc1,4.61
9,O=C(NCCN1CCCC1)c1cc(-c2ccncc2)nc2ccc(S(=O)(=O)N3CCOCC3)cc12,12.6
10,CSc1ccc(/C=C2\C(=N)N3N=C(CC(=O)N4CCOCC4)SC3=NC2=O)cc1,14
11,Cc1cccc(NC(=O)CC2NCCNC2=O)c1 (centres unmarked),16.5
12,COc1ccc(N2CCN(Cc3nnnn3C3CCCCC3)CC2)cc1,12.6
13,O=C(NCCCn1ccnc1)C(=O)NCC1OCCN1S(=O)(=O)c1ccc(Cl)cc1 (centres unmarked),23.6
14,Cc1cc(C)nc(SC2CC(=O)N(c3ccc(C)c(C)c3)C2=O)n1 (centres unmarked),12.1
15,O=C(NCc1ccc(Cl)cc1)C1CCN(C(=O)c2ccco2)CC1,-6
16,CCOc1cc(C(=O)N2CCC3(CC2)OCCO3)cc(OCC)c1OCC,-5.42
17,CCc1ccc(C(=O)COC(=O)CNC(=O)COc2ccccc2)cc1,-18.6
18,COc1ccc(-c2nc3ccc(C)cc3c(=O)o2)cc1OC,6.35
19,O=S(=O)(c1ccccc1)c1nc(Cc2ccccc2)oc1N1CCOCC1,15.3
20,Cc1cc2cc(CNC(=O)CC(C)C)ccc2n1C,12.6

row,SMILES,"hERG current change (%, negative = inhibition) at 1uM [%]"
1,Cn1c(N2CCOCC2)nc2c1c(=O)n(Cc1ccc(Cl)cc1)c(=O)n2C,-1.41
2,c1ccc2c(c1)ccc1nnnn12,11.3
3,CCOc1ccc(N(CC(=O)NC(C)(C)C)C(=O)CCC(=O)Nc2nccs2)cc1,3.66
4,O=C(Nc1cccc(NC(=O)c2ccco2)c1)c1ccc2c(c1)OCCO2,4.23
5,CN(C)c1ccc(/C=C/C(O)=C2/C(=O)N(C)C3(C)CC2c2ccccc2O3)cc1 (centres unmarked),18
6,CCn1cc(S(=O)(=O)CC(=O)Nc2ccc3c(c2)OCCO3)c2ccccc21,-0.708
7,Cc1ccc2nc(-c3ccccc3Cl)cc(C(=O)Nc3cc(C)on3)c2c1,0.124
8,COc1ccccc1C1CCN(C(=O)c2cccs2)CC1,7.81
9,COC(=O)c1c(C)[nH]c(C(=O)NCCc2ccc(S(N)(=O)=O)cc2)c1C,18.4
10,O=C(NCc1ccccc1)c1ccc(NC(=O)C2CCCO2)cc1 (centres unmarked),0.0594
11,Cc1ccc(NC(=O)NCc2ccc3c(c2)OCO3)cc1,-0.265
12,C/C=C(\C)C(=O)NCCN1C2=NC[C@H](Cc3ccc(O)cc3)N2C[C@H]1Cc1ccc(O)cc1,15.5
13,O=C(CCC(=O)c1cccs1)NCc1cccc(C(F)(F)F)c1,4.3
14,CSc1nncn1/N=C/c1ccccc1F,7.89
15,CCN=C1S/C(=C\c2cn(CC)c3ccccc23)C(=O)N1CC,0.533
16,Cc1nn(C)c(C)c1NC(=O)c1ccc(S(=O)(=O)N(C)C)cc1,10.3
17,COc1ccc(CNC(N)=O)cc1,-2.86
18,COc1ccccc1N(C)S(=O)(=O)c1ccc(Cl)c(C(=O)N2CCC2)c1,-0.394
19,CCOC(=O)c1cc(C)nc(Sc2ccc(C)cc2)c1C#N,8.44
20,CC(=O)NC(C(=O)NCC(N)=O)C(C)C (centres unmarked) (Ac-[ξV]-Gly-NH2),5.93

row,SMILES,"hERG current change (%, negative = inhibition) at 1uM [%]"
1,CCc1c(C)nc2cc(C)[nH]n2c1=O,10.4
2,CC1=Nc2cc(C(=O)NCCCOC(C)C)ccc2Sc2ccc(C)cc21,1.49
3,Cc1c(C(=O)Nc2cc(F)cc(F)c2)cnn1-c1ccccc1,21.2
4,CN(C)c1nc(NCc2ccccc2)nc(SCC(=O)Nc2ccccc2)n1,14.5
5,Cc1ncc(CSc2nnnn2-c2ccccc2)c(N)n1,15.2
6,CCOC(=O)c1cc(OC(=O)c2ccccc2Br)n(-c2ccccc2)n1,-15.2
7,Cc1nc(SCC(=O)Nc2ccc3c(c2)OCCO3)nc(C)c1C,19.7
8,O=C(Nc1nc2ccccc2s1)c1ccc(Cl)s1,-0.0455
9,COc1cccc(Nc2ccc(C(=O)O)cc2[N+](=O)[O-])c1,9.59
10,CCOC(=O)N1CCN(CC(=O)c2ccc(O)cc2O)CC1,8.27
11,CCC(CC)N=C1NS(=O)(=O)c2cc([N+](=O)[O-])ccc21,10.8
12,COc1ccccc1N1C(=O)CC(N(O)c2ccccc2)C1=O (centres unmarked),27.7
13,COc1cccc(CN2CCN(C(=O)c3ccc(-c4ccccc4)cc3)CC2)c1,4.67
14,CCOC(=O)Cn1cc(C(=O)C(C)(C)C)c2ccccc21,7.26
15,COc1ccc(NC(=O)Cn2nc3n(c2=S)CCC3)cc1,12.3
16,COc1cccc(C(=O)COc2ccccc2-c2ccccc2)c1,2.12
17,O=C1Nc2cc(C(=O)NCCCN3CCCC3)ccc2S/C1=C/c1ccccc1F,-31
18,c1cc(-n2cnnn2)ccc1NC1=NCCC1,15.4
19,Cc1n[nH]c(C)c1S(=O)(=O)N1CCCC(C(=O)NCc2cccs2)C1 (centres unmarked),6.14

# Reference: publication PMC4336329 (PLoS ONE, 2015)
